Source: ChEMBL document CHEMBL4888484, “Replenishing the malaria drug discovery pipeline: Screening and hit evaluation of the MMV Hit Generation Library 1 (HGL1) against asexual blood stage Plasmodium falciparum ,using a nano luciferase reporter read-out” (2022)
In all, about 150,000 compounds went through this assay and about 540 (0.36%) showed an effect of 50% or more. The list shows a part of the results.

System: Plasmodium falciparum
Experiment: Primary screen in NF54 nanoGlo assay, in single point, at 2uM, 72h; a lower Z score goes with more inhibition
Assay type: functional, Erythrocyte
Details: timepoint 72 hour

SMILES	% Inhibition [%]	Z score
CC(C)c1nc(CN(C)Cc2ccncc2)no1	1	-0.2
CCCN1CCC(N[C@H]2C[C@@H](C(=O)N3CCc4cc(OC)c(OC)cc4C3)N(C/C=C/c3ccccc3)C2)CC1	4	-0.69
COc1ccc(C(=O)NC2CCN(c3cn[nH]c(=O)c3)CC2)cn1	1	-0.07
Cc1ccc(F)c(C(=O)N2C[C@H]3CC[C@@H](C2)[C@H]3N(C)C)c1Cl	2	-0.48
O=C([C@@H]1CCCN1C(=O)Nc1ccccc1)N1CCn2nccc21	-7	1.12
CCOc1ccccc1CNC(=O)[C@@H]1CCCN1c1nnc(N2CCCC2=O)s1	-3	0.44
Cc1ccc(NC(=O)OC(C)(C)C)cc1NCc1cn(C)nn1	-6	0.93
Cn1ccc2c(-c3nc([C@H]4CCOC4)no3)cccc21	-7	1.47
Cc1c(NC(C)C(C)C)cccc1C(=O)NC1CCN(C)C1=O (stereo not given)	3	-0.58
Cc1cnc(CCNC(=O)CC2CCCC2)n1Cc1ccc(F)cc1	-14	1.57
CC1(O)CN(C(=O)[C@](C)(O)c2ccc(F)c(Br)c2)C1	25	-2.92
CCCn1ncc(CN2CCc3ccc(OC)cc3[C@@H]2C)c1C	-14	1.84
C[C@@H](C(=O)NCC(F)(F)F)N(C)Cc1nccs1	-10	0.83
CCc1cc(=O)[nH]c(-n2ncc(C(=O)NCCc3ccccc3)c2C)n1	15	-1.98
C[C@@H](CC(=O)N1CCN(c2ccccc2F)CC1)Cc1nnc2c(=O)n(-c3cccc(F)c3)ccn12	-8	1.12
COc1cccc2[nH]cc(C(CC(=O)NC3CCS(=O)(=O)C3)c3ccccc3)c12 (stereo not given)	-13	2.01
C[C@@H](CC(=O)NCCc1nnc2n1CCCC2)c1cccc(C(F)(F)F)c1	-14	1.47
CC(C)(C)OC(=O)N1CC2(CC(=O)NCCN2Cc2cc[nH]n2)C1	8	-0.95
CC(C)c1ncsc1C(=O)NCCCN1CCCO[C@@H](C)C1	12	-1.85
O=C(c1ccccc1)N1C[C@@H]2C[C@@H](O)CN2C2(C1)CN(C(=O)c1ccccc1)C2	-2	0.38
C#CC[C@H](Nc1nc(C)nc2scc(C)c12)C(N)=O	9	-1.48
O=C(Nc1cc(S(=O)(=O)N2CCCC2)ccc1O)C1CCCCC1	5	-0.83

SMILES	% Inhibition [%]	Z score
COc1ccc(C(=O)N[C@H]2CCCNC2=O)c(O)c1	-8	1.65
CCC1CN(S(=O)(=O)c2cccc3ccoc23)C1	-18	2.76
Cc1nn(C)cc1CNC(=O)Cn1nc(C)n(CCc2ccccc2)c1=O	-3	0.52
CC1(C)c2ccccc2N2CC(=O)N[C@@]21/C=C/c1ccc(Cl)cc1	-10	1.14
Cc1nc2c([nH]1)CC[C@H](C(=O)NCc1ccc(C3CC3)cc1F)C2	-8	0.83
CCC1(O)CN(c2cccc(C#N)n2)C1	-6	0.64
O=C(c1nn[nH]c1-c1ccccc1)N1CCC(O)(C2CCC2)CC1	1	-0.21
O=C(NC1CC1)C(c1ccccc1)N1CCC(c2ccccc2)C1 (stereo not given)	0	-0.05
CN(C)C(=O)N1CCN(CCOc2ccc(F)cc2)[C@@H]2CS(=O)(=O)C[C@@H]21	4	-0.81
CCc1cccc(C)c1NC(=O)[C@@H]1CN(S(=O)(=O)c2ccc(C)cc2)c2ccc(C)cc2O1	5	-0.63
C=CCn1nc([C@@H]2CCCO2)n(C)c1=O	4	-0.7
CCc1ccc(NC(=O)C23CCC(C)(C(=O)C2=O)C3(C)C)cc1 (stereo not given)	-25	4.76
O=C(Nc1ccc2c(c1)OCO2)N1CC[C@H](Oc2ncccn2)C1	-15	2.4
C[C@H]1CN(Cc2ccc3c(c2)CCO3)CCN1CC(F)(F)F	-1	0.24
c1nc(N2CCC3(CCCO3)CC2)c2nc[nH]c2n1	2	-0.39
Cc1cc(C(=O)Cn2cnc(C#N)n2)c(C)n1C(C)C	2	-0.28
CCN(CC)S(=O)(=O)NC(=O)CCc1cc(Cl)cs1	2	-0.25
COC(=O)[C@H]1CC12CCN(S(=O)(=O)Cc1cccc(F)c1)CC2	-17	1.95
CC[C@H](C)C(=O)NCCc1ccsc1	-13	2.22
Cn1cc(C[C@H](O)C(=O)NC2CCC3(CCCCC3)CC2)cn1	6	-0.73
C[n+]1c(CCc2ccccc2)sc2ccccc21	-7	1.33
CCNc1ncc(C(=O)N2CCN([C@H]3CCCC[C@@H]3O)CC2)cn1	0	-0.02

SMILES	% Inhibition [%]	Z score
CCc1ncc(CN[C@@H]2CCC[C@H]2OC(F)F)cn1	3	-0.38
O=C(c1c[nH]c(C(=O)N2CCCC2)c1)N1CCN(c2ncccn2)CC1	-8	1.56
CCCN(CCC)C(=O)c1cc(OCC)c(OCC)c(OCC)c1	-7	1.36
O=C(Cc1csc(-c2ncccn2)n1)OC[C@H]1CCCCO1	-9	0.91
Cn1cc(C(NC(=O)c2c[nH]c3c(F)cccc3c2=O)[C@H]2C[C@@H](O)C2)cn1 (stereo not given in full)	-4	0.57
O=C(CN1CCCCCC1)Nc1nc(-c2ccccc2)cs1	10	-1.32
Cc1cc2c(N)c3ccc(N(C)C)cc3nc2cn1	12	-2
Cc1ccc(C)c(NC(=O)N2C[C@H](NS(=O)(=O)N(C)C)[C@@H](C(C)C)C2)c1	-10	1.95
Cc1cccc(C(=O)N2c3ccccc3C[C@@H]2C)n1	-10	0.86
CCC[C@H](C)NCc1ccccc1OC	-1	0.07
CC1CCCCC1N(C)C(=O)Cn1cnc(C#N)c1C#N (stereo not given)	-7	0.71
CCc1cc(NC(=O)[C@H]2CC[C@@H](C(=O)N3CCCC3)O2)ccc1C	7	-1.09
COc1cccc(-c2nc(NCc3ccccc3)nc3nn(-c4ccc(Cl)cc4)c(N)c23)c1	14	-1.76
C#CCCCCC(=O)N(C)c1ncccc1OC	-7	1.16
C[C@H](Nc1ccc2c(c1)OC1(CCCCC1)O2)C(=O)N1CCNC1=O	-4	0.37
c1csc(N2CCN([C@H]3CCOC4(CCOCC4)C3)CC2)n1	-3	0.53
Cc1cc(=O)n(CCN(C)Cc2ccoc2)c(=O)[nH]1	15	-3.1
NC(=O)c1ccc(C(=O)NCC2(c3ccccc3)CC2)cn1	-8	0.75
CC1CN(c2nnc(C(F)(F)F)s2)CC(C2CC2)O1 (stereo not given)	-8	0.83
CCC(C)(C)N(C)Cc1nc2ncc(Br)cn2n1	-6	1.24
O=C(O)c1ccccc1-n1ncc2c1C(=Cc1ccccc1)CCC2	-11	1.75
CC(C)(C)[C@H]1CCCN(C(=O)CCc2cn[nH]c2)CC1	-15	2.2

SMILES	% Inhibition [%]	Z score
FC(F)(F)c1cccc(C2(c3nc(-c4ccccn4)no3)CCOCC2)c1	0	0.05
Cc1oncc1C(=O)NCCCn1cccn1	1	-0.16
CN(Cc1cccc(OC(F)F)c1)Cc1cc(=O)n2nccc2[nH]1	-14	2.28
Cn1nc(CNC(=O)CO)c2c(Cl)cccc21	-5	0.79
Nc1ccc(C(=O)NC(Cc2ccccn2)[C@H]2C[C@H](O)C2)cn1 (stereo not given in full)	-7	0.79
COc1cc(OC)cc(C(=O)N2CCc3cc(-c4ccno4)ccc32)c1	-1	0.1
O=C(Nc1ccc(NC2CCCCC2)cc1)c1cnccn1	1	-0.11
Cc1c(C(=O)N2CCN(C3CCCCC3)CC2)cccc1-n1nnc2cccnc21	-6	1.08
CC(C)C[C@H]1NC(=O)[C@H]2CN(S(=O)(=O)c3ccccc3F)CCN2C1=O	-1	0.27
CCn1nc(CO)c2c1CCN(Cc1ccccc1C#N)C2	-4	0.67
CC1=C(c2ccc(C)cc2)S(=O)(=O)N=C1N1CCC(NC(=O)c2ccncc2)CC1	-5	0.99
CC(C(=O)N1CCc2ccccc21)N(C)CC1COc2ccccc2O1 (stereo not given)	16	-1.85
CCn1nc(C)c(Nc2ncc(Br)cn2)c1C	-3	0.46
O=C(C#Cc1ccccc1)N1CCC[C@@](CO)(CCOc2ccccc2)C1	-5	0.59
Cc1cc(C(=O)Nc2ccncc2)c2c(-c3ccccc3F)noc2n1	8	-0.93
CN1CCC(N(CCc2ccccc2)S(=O)(=O)N2CCCCCC2)CC1	-12	1.66
COc1ccccc1OC1(C(=O)O)CCN(c2nccc(N)n2)CC1	9	-1.17
CC1C2C(c3ccccc3)N(C)C(=O)N(C)C2N(C)C(=O)N1C (stereo not given)	-2	0.45
CS(=O)(=O)[C@H]1CCN(c2ccc(C(=O)Nc3ccccc3)nn2)C1	1	-0.29
